# Measurements taken from the supplement of paper PMC8728848.
# This is one part of the list.
# Columns and labels:
# Assay in all cases: glycan array binding signal (z-score within array); higher = stronger binding
# Details in all cases: glycan notation: IUPAC condensed, linker removed
# [1] = molecular target: GlcNAc(b1-2)Gal(b1-3)GalNAc
# Outline: (§1)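 Arrays were curated from the Consortium for Functional Glycomics database, 3228 in total, and kept only where the protein sequence was available. Binding is expressed as a within-array Z-score. This score was averaged across arrays of the same protein sequence at different concentrations or buffers and across linkers, and negative values can be read as non-binding.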
# [2] = molecular target: GlcNAc(b1-2)Man(a1-3)[GlcNAc(b1-2)Man(a1-6)]Man(b1-4)GlcNAc(b1-4)GlcNAc
# Outline: as §1
# [3] = molecular target: GlcNAc(b1-2)Man(a1-3)[GlcNAc(b1-2)Man(a1-6)]Man(b1-4)GlcNAc(b1-4)[Fuc(a1-6)]GlcNAc
# Outline: as §1
# [4] = molecular target: GlcNAc(b1-2)Man(a1-3)[GlcNAc(b1-4)][GlcNAc(b1-2)Man(a1-6)]Man(b1-4)GlcNAc(b1-4)GlcNAc
# Outline: as §1
# [5] = molecular target: GlcNAc(b1-2)Man(a1-3)[GlcNAc(b1-4)][GlcNAc(b1-2)Man(a1-6)]Man(b1-4)GlcNAc(b1-4)[Fuc(a1-6)]GlcNAc
# Outline: as §1
# [6] = molecular target: GlcNAc(b1-2)[GlcNAc(b1-4)]Man(a1-3)[GlcNAc(b1-2)Man(a1-6)]Man(b1-4)GlcNAc(b1-4)GlcNAc
# Outline: as §1
# [7] = molecular target: GlcNAc(b1-2)[GlcNAc(b1-4)]Man(a1-3)[GlcNAc(b1-4)][GlcNAc(b1-2)Man(a1-6)]Man(b1-4)GlcNAc(b1-4)GlcNAc
# Outline: as §1
# [8] = molecular target: GlcNAc(b1-2)[GlcNAc(b1-4)]Man(a1-3)[GlcNAc(b1-4)][GlcNAc(b1-2)[GlcNAc(b1-6)]Man(a1-6)]Man(b1-4)GlcNAc(b1-4)GlcNAc
# Outline: as §1
# [9] = molecular target: GlcNAc(b1-2)[GlcNAc(b1-4)]Man(a1-3)[GlcNAc(b1-4)][GlcNAc(b1-2)[GlcNAc(b1-6)]Man(a1-6)]Man(b1-4)GlcNAc(b1-4)[Fuc(a1-6)]GlcNAc
# Outline: as §1
# [10] = molecular target: GlcNAc(b1-2)[GlcNAc(b1-6)]Man(a1-6)[GlcNAc(b1-2)Man(a1-3)]Man(b1-4)GlcNAc(b1-4)GlcNAc
# Outline: as §1
# [11] = molecular target: GlcNAc(b1-2)[GlcNAc(b1-6)]Man(a1-6)[GlcNAc(b1-2)Man(a1-3)]Man(b1-4)GlcNAc(b1-4)[Fuc(a1-6)]GlcNAc
# Outline: as §1
# [12] = molecular target: GlcNAc(b1-2)[GlcNAc(b1-6)]Man(a1-6)[GlcNAc(b1-4)][GlcNAc(b1-2)Man(a1-3)]Man(b1-4)GlcNAc(b1-4)GlcNAc
# Outline: as §1
# GlcNAc(b1-3)Fuc = molecular target: GlcNAc(b1-3)Fuc
# Outline: as §1
# GlcNAc(b1-3)Gal = molecular target: GlcNAc(b1-3)Gal
# Outline: as §1
# [13] = molecular target: GlcNAc(b1-3)Gal(b1-3)GalNAc
# Outline: as §1
# GlcNAc(b1-3)Gal(b1-4)Glc = molecular target: GlcNAc(b1-3)Gal(b1-4)Glc
# Outline: as §1
# [14] = molecular target: GlcNAc(b1-3)Gal(b1-4)GlcNAc
# Outline: as §1
# [15] = molecular target: GlcNAc(b1-3)Gal(b1-4)GlcNAc(b1-2)Man(a1-3)[GlcNAc(b1-3)Gal(b1-4)GlcNAc(b1-2)Man(a1-6)]Man(b1-4)GlcNAc(b1-4)GlcNAc
# Outline: as §1
# [16] = molecular target: GlcNAc(b1-3)Gal(b1-4)GlcNAc(b1-2)Man(a1-3)[GlcNAc(b1-3)Gal(b1-4)GlcNAc(b1-2)Man(a1-6)]Man(b1-4)GlcNAc(b1-4)[Fuc(a1-6)]GlcNAc
# Outline: as §1
# [17] = molecular target: GlcNAc(b1-3)Gal(b1-4)GlcNAc(b1-2)[GlcNAc(b1-3)Gal(b1-4)GlcNAc(b1-6)]Man(a1-6)[GlcNAc(b1-3)Gal(b1-4)GlcNAc(b1-2)Man(a1-3)]Man(b1-4)GlcNAc(b1-4)GlcNAc
# Outline: as §1
# [18] = molecular target: GlcNAc(b1-3)Gal(b1-4)GlcNAc(b1-3)Gal(b1-4)GlcNAc
# Outline: as §1
# [19] = molecular target: GlcNAc(b1-3)Gal(b1-4)GlcNAc(b1-3)Gal(b1-4)GlcNAc(b1-2)Man(a1-3)[GlcNAc(b1-3)Gal(b1-4)GlcNAc(b1-3)Gal(b1-4)GlcNAc(b1-2)Man(a1-6)]Man(b1-4)GlcNAc(b1-4)GlcNAc
# Outline: as §1
# [20] = molecular target: GlcNAc(b1-3)Gal(b1-4)GlcNAc(b1-3)Gal(b1-4)GlcNAc(b1-2)Man(a1-3)[GlcNAc(b1-3)Gal(b1-4)GlcNAc(b1-3)Gal(b1-4)GlcNAc(b1-2)Man(a1-6)]Man(b1-4)GlcNAc(b1-4)[Fuc(a1-6)]GlcNAc
# Outline: as §1
# [21] = molecular target: GlcNAc(b1-3)Gal(b1-4)GlcNAc(b1-3)Gal(b1-4)GlcNAc(b1-2)[GlcNAc(b1-3)Gal(b1-4)GlcNAc(b1-3)Gal(b1-4)GlcNAc(b1-6)]Man(a1-6)[GlcNAc(b1-3)Gal(b1-4)GlcNAc(b1-3)Gal(b1-4)GlcNAc(b1-2)Man(a1-3)]Man(b1-4)GlcNAc(b1-4)[Fuc(a1-6)]GlcNAc
# Outline: as §1
# [22] = molecular target: GlcNAc(b1-3)Gal(b1-4)GlcNAc(b1-3)Gal(b1-4)GlcNAc(b1-3)Gal(b1-4)GlcNAc(b1-2)Man(a1-3)[GlcNAc(b1-3)Gal(b1-4)GlcNAc(b1-3)Gal(b1-4)GlcNAc(b1-3)Gal(b1-4)GlcNAc(b1-2)Man(a1-6)]Man(b1-4)GlcNAc(b1-4)GlcNAc
# Outline: as §1
# [23] = molecular target: GlcNAc(b1-3)Gal(b1-4)GlcNAc(b1-3)Gal(b1-4)GlcNAc(b1-3)Gal(b1-4)GlcNAc(b1-2)Man(a1-3)[GlcNAc(b1-3)Gal(b1-4)GlcNAc(b1-3)Gal(b1-4)GlcNAc(b1-3)Gal(b1-4)GlcNAc(b1-2)Man(a1-6)]Man(b1-4)GlcNAc(b1-4)[Fuc(a1-6)]GlcNAc
# Outline: as §1
# [24] = molecular target: GlcNAc(b1-3)Gal(b1-4)GlcNAc(b1-3)Gal(b1-4)GlcNAc(b1-3)Gal(b1-4)GlcNAc(b1-2)[GlcNAc(b1-3)Gal(b1-4)GlcNAc(b1-3)Gal(b1-4)GlcNAc(b1-3)Gal(b1-4)GlcNAc(b1-6)]Man(a1-6)[GlcNAc(b1-3)Gal(b1-4)GlcNAc(b1-3)Gal(b1-4)GlcNAc(b1-3)Gal(b1-4)GlcNAc(b1-2)Man(a1-3)]Man(b1-4)GlcNAc(b1-4)[Fuc(a1-6)]GlcNAc
# Outline: as §1
# [25] = molecular target: GlcNAc(b1-3)Gal(b1-4)GlcNAc(b1-3)Gal(b1-4)GlcNAc(b1-3)Gal(b1-4)GlcNAc(b1-3)Gal(b1-4)GlcNAc(b1-2)Man(a1-3)[GlcNAc(b1-3)Gal(b1-4)GlcNAc(b1-3)Gal(b1-4)GlcNAc(b1-3)Gal(b1-4)GlcNAc(b1-3)Gal(b1-4)GlcNAc(b1-2)Man(a1-6)]Man(b1-4)GlcNAc(b1-4)GlcNAc
# Outline: as §1
# [26] = molecular target: GlcNAc(b1-3)Gal(b1-4)GlcNAc(b1-3)Gal(b1-4)GlcNAc(b1-3)Gal(b1-4)GlcNAc(b1-3)Gal(b1-4)GlcNAc(b1-2)Man(a1-3)[GlcNAc(b1-3)Gal(b1-4)GlcNAc(b1-3)Gal(b1-4)GlcNAc(b1-3)Gal(b1-4)GlcNAc(b1-3)Gal(b1-4)GlcNAc(b1-2)Man(a1-6)]Man(b1-4)GlcNAc(b1-4)[Fuc(a1-6)]GlcNAc
# Outline: as §1
# [27] = molecular target: GlcNAc(b1-3)Gal(b1-4)GlcNAc(b1-3)Gal(b1-4)GlcNAc(b1-3)Gal(b1-4)GlcNAc(b1-3)Gal(b1-4)GlcNAc(b1-2)[GlcNAc(b1-3)Gal(b1-4)GlcNAc(b1-3)Gal(b1-4)GlcNAc(b1-3)Gal(b1-4)GlcNAc(b1-3)Gal(b1-4)GlcNAc(b1-6)]Man(a1-6)[GlcNAc(b1-3)Gal(b1-4)GlcNAc(b1-3)Gal(b1-4)GlcNAc(b1-3)Gal(b1-4)GlcNAc(b1-3)Gal(b1-4)GlcNAc(b1-2)Man(a1-3)]Man(b1-4)GlcNAc(b1-4)[Fuc(a1-6)]GlcNAc
# Outline: as §1
# [28] = molecular target: GlcNAc(b1-3)Gal(b1-4)GlcNAc(b1-3)Gal(b1-4)GlcNAc(b1-3)GalNAc
# Outline: as §1
# [29] = molecular target: GlcNAc(b1-3)Gal(b1-4)GlcNAc(b1-3)GalNAc
# Outline: as §1
# [30] = molecular target: GlcNAc(b1-3)Gal(b1-4)GlcNAc(b1-3)[GlcNAc(b1-3)Gal(b1-4)GlcNAc(b1-3)]GalNAc
# Outline: as §1
# [31] = molecular target: GlcNAc(b1-3)Gal(b1-4)GlcNAc(b1-6)[Gal(b1-3)]GalNAc
# Outline: as §1
# [32] = molecular target: GlcNAc(b1-3)Gal(b1-4)GlcNAc(b1-6)[GlcNAc(b1-3)Gal(b1-3)]GalNAc
# Outline: as §1
# [33] = molecular target: GlcNAc(b1-3)Gal(b1-4)GlcNAc(b1-6)[GlcNAc(b1-3)]Gal(b1-4)GlcNAc
# Outline: as §1
# GlcNAc(b1-3)GalNAc = molecular target: GlcNAc(b1-3)GalNAc
# Outline: as §1
binder,measurement,setting,value
Na-CTL-1 (Necator americanus) (protein) MQRSFLLLLVVLAGAWAVNTTIPLKLMGGFTPMKYQCVGRVSDIWADVLFLIESSDMITKSGFRQVIAFITATTKKMTIGQDEKQTRVGFITYGEEAKLIYDLDHWRSTEKLSDLVQKIPYVKSSGTNIAAAIALANKVFNSPTHRPNVPKVMVIVANGLKKGSQNPIPVATAFKDFGGIIITIEYTQYDNIQVPILKKIASEGYNIRSNDEDFSVRTLTNMLLQANCFCPDHYVPFRVNNPEFGCFVTAKIPSMWRDAAEMCRAVEEGKLVKVENEEKAAFIMKLVGPKKEAWIGLRYYGNKFQWTDGTKLNADDFNLWPEDIKELNGPHCVSMYQDQKDKKYYWRAGKCLEDMRYVCEVQPCSASNYCSEPVFMYRQKHRALLPAPPPPPN,glycan array binding signal (z-score),[1],0.662
same,glycan array binding signal (z-score),[2],-0.41
same,glycan array binding signal (z-score),[3],0.087
same,glycan array binding signal (z-score),[4],-0.557
same,glycan array binding signal (z-score),[5],-0.413
same,glycan array binding signal (z-score),[6],-0.655
same,glycan array binding signal (z-score),[7],-0.277
same,glycan array binding signal (z-score),[8],0.3
same,glycan array binding signal (z-score),[9],-0.111
same,glycan array binding signal (z-score),[10],-0.357
same,glycan array binding signal (z-score),[11],-0.145
same,glycan array binding signal (z-score),[12],-0.439
same,glycan array binding signal (z-score),GlcNAc(b1-3)Fuc,-0.513
same,glycan array binding signal (z-score),GlcNAc(b1-3)Gal,0.28
same,glycan array binding signal (z-score),[13],-0.105
same,glycan array binding signal (z-score),GlcNAc(b1-3)Gal(b1-4)Glc,-0.137
same,glycan array binding signal (z-score),[14],-0.383
same,glycan array binding signal (z-score),[15],-0.237
same,glycan array binding signal (z-score),[16],-0.347
same,glycan array binding signal (z-score),[17],0.423
same,glycan array binding signal (z-score),[18],0.102
same,glycan array binding signal (z-score),[19],0.413
same,glycan array binding signal (z-score),[20],0.461
same,glycan array binding signal (z-score),[21],0.085
same,glycan array binding signal (z-score),[22],-0.532
same,glycan array binding signal (z-score),[23],0.105
same,glycan array binding signal (z-score),[24],1.69
same,glycan array binding signal (z-score),[25],0.73
same,glycan array binding signal (z-score),[26],-0.264
same,glycan array binding signal (z-score),[27],0.437
same,glycan array binding signal (z-score),[28],-0.252
same,glycan array binding signal (z-score),[29],-0.42
same,glycan array binding signal (z-score),[30],-0.552
same,glycan array binding signal (z-score),[31],-0.66
same,glycan array binding signal (z-score),[32],-0.168
same,glycan array binding signal (z-score),[33],0.097
same,glycan array binding signal (z-score),GlcNAc(b1-3)GalNAc,-0.263
